Assay results as given in the RNAGym collection of RNA variant scans (doi:10.7554/elife.90254).
The source gives no read counts; variants with many changes may rest on few reads.

B1: LINE1-mini (parent)
chain: GGCAGAGCUCAACACAGCGUGGCAAAGUGGCUGUGGCUAGACUGCC

Variants of: B1
Experiment: self-cleavage, relative activity (ratio to wild type); higher = more cleavage; in vitro, sequencing; the parent is a self-cleaving ribozyme

Row | Variant | self-cleavage
1 | G7A U38A C45A | 0.07
2 | G7A C18A G22C G40A | 0.04
3 | G7A G17U C23G G33C C37A | 0.03
4 | G7A C23U U32C | 0.27
5 | G7A C13A U38A | 0.04
6 | G7A C18A A24C A39C C42U | 0.05
7 | G7A C13U A16G U28C U32A | 1.05
8 | G7C A26G G30U G40A G44A | 0.03
9 | G7A C15U A16C G17A A25G G36C | 0.04
10 | G7A C31U U38C A39G C42G | 0.06
11 | G7A G27U G40C | 0.11
12 | G7A G21U U28C G29C | 0.01
13 | G7A C8G A24U G35C G36U | 0.11
14 | G7A U32G A39U | 0.08
15 | G7A U32A U34A | 0.19
16 | G7A G21A A24U | 0.09
17 | G7A C18A C42G U43C C45A | 0.06
18 | G7A C31A C42G | 0.04
19 | G7A G17A C23A U34G C46A | 0.01
20 | G7A G17U C45U | 0.08
21 | G7A C15A G22A A39G G40C C42U | 0.17
22 | G7A C13G G17C G22A | 0.09
23 | G7A C10A C23G A25G U34A | 0.01
24 | G7A C31A G35U | 0.19

Row | Variant | self-cleavage
25 | G7A C13U G19A C42U | 0.86
26 | G7C A14C G29U | 0.08
27 | G7A C13A C18U | 0.09
28 | G7A U9G U34G C46U | 0.02
29 | G7A C10G A39C | 0.02
30 | G7C A16C G29U | 0.04
31 | G7C A26C G30U U32G | 0.05
32 | G7C A11U G22U C23A G30A | 0.01
33 | G7A C13G G19A A41G C46A | 0.15
34 | G7A U9A U34G | 0.39
35 | G7A C10G A11C A12C C13G C15U G33C C37U | 0
36 | G7C A12U C13G | 0.25
37 | G7C A11U G21U G27U | 0.01
38 | G7C A11U G21U G27A | 0.01
39 | G7C A14U C15A C18U U20A G30U C31U A39C | 0
40 | G7C A16U A25G | 0.05
41 | G7C A11G G35C | 0.02
42 | G7A G27C U34G | 0.07
43 | G7A C10G G33U G36U | 0.03
44 | G7A G29A A39G | 0.07
45 | G7C A16U G17U C31G G36C G40C C45A | 0
46 | G7A C31U G33A A39C | 0.13
47 | G7A U9C C13U A14G G27C | 0.02
48 | G7C A11U A16C G27C | 0.04

Row | Variant | self-cleavage
49 | G7A C13U A24C G44A C45G | 0.07
50 | G7A G17U G30C G35U G36U U38A | 0.03
51 | G7A G17C G29U | 0.83
52 | G7C A11C A25G C37U | 0.02
53 | G7A C23G A26U A41U | 0.07
54 | G7C A14C G19A C23A U32G | 0.02
55 | G7A C10U A25U C45A C46G | 0.22
56 | G7A U43G C46G | 0.14
57 | G7C A12U G30C | 0.18
58 | G7A C13U C31U G40C | 0.27
59 | G7A G30C G33U G36U | 0.38
60 | G7A G17U G33A | 0.06
61 | G7A U9G A14G C37U G40U | 0.11
62 | G7A G21C U28C G30C | 0.04
63 | G7C A12C G19U U20C U38G C42A | 0
64 | G7A G21A U34G C42U | 0.17
65 | G7A G17C G27A C31U | 0.05
66 | G7A G19U G35A C46A | 0.06
67 | G7A G27C U32G G36C | 0.1
68 | G7A C10G A11U G22U C23U | 0.01
69 | G7A C13G C45U | 0.02
70 | G7A C8G G17U U32G | 0.04
71 | G7A C31A G44C | 0.1
72 | G7A C10A G19A U20A C37U C45A | 0

Row | Variant | self-cleavage
73 | G7A G27U U34G C45A | 0.21
74 | G7A C15A G19C C37U U38G G44U | 0.01
75 | G7A C8U U32C | 0.45
76 | G7C A24G G29A G40A | 0.08
77 | G7A U9C G22A G33U A41G | 0.04
78 | G7A C15A A39G C46U | 0.01
79 | G7A C15A G35C C45A | 0.15
80 | G7A G21C G22C G27C G40C G44C | 0.03
81 | G7A C10U G21A C23G C45U | 0.03
82 | G7C A12C U34A C42A | 0
83 | G7C A14U C23A G36U | 0.25
84 | G7A G17A A24G C31A | 0.02
85 | G7A G40U A41U | 0.22
86 | G7A G33A G36A G44C | 0.23
87 | G7C A12C C46G | 0.05
88 | G7A C13U C18A G27U U28G G33U | 0.06
89 | G7A G33C G36C | 0.03
90 | G7A C18A G21A A25G G27A G36A | 0.16
91 | G7A U9A G21A A39U | 0.71
92 | G7A G29C A39U | 0.07
93 | G7C A14C C42A G44U | 0.03
94 | G7A G17A G27U G29C | 0.1
95 | G7A C13A G27U | 0.14
96 | G7A C13G A41G C46A | 0.12

Row | Variant | self-cleavage
97 | G7A G21C G22A C37A | 0.07
98 | G7A C8U G19A G40U | 0.69
99 | G7A C8G U9A G19U A26U A39U | 0.16
100 | G7C A14U U28G G40A U43A | 0.02
101 | G7A C18A G30A A41U | 0.06
102 | G7A G30U G36C | 0.11
103 | G7A G17U G19U G36C | 0.24
104 | G7A G30U G40C | 0.05
105 | G7A C23A C37A | 0.02
106 | G7A C10A G17U A24C U28C | 0.02
107 | G7A U9C C10G C42A | 0.01
108 | G7A G21C U43G C45U | 0.06
109 | G7A C18U U38C | 0.19
110 | G7A G17C A25G C31A C45A | 0.05
111 | G7A U20G G30C C45A | 0.09
112 | G7A C10A C13G | 0.01
113 | G7A C8U A11G G17U G29U | 0.03
114 | G7A C10G G19U U32A | 0.02
115 | G7A G17C G19U G21C | 0.24
116 | G7A G30A U38G | 0.02
117 | G7A U28C G33C | 0.15
118 | G7A G22U G27U C42A | 0.12
119 | G7C A14U C15G | 0.03
120 | G7A U9G U20G C23A A25G G27A G29C | 0.02

Row | Variant | self-cleavage
121 | G7C A14C A16U G40U | 0.11
122 | G7A U28G C45A | 0.22
123 | G7A U20A G22C U38G | 0.01
124 | G7A C31A G33A G35U | 0.25
125 | G7A C13G C37A | 0.16
126 | G7A U28A G36U | 0.05
127 | G7A G29U U43A | 0.77
128 | G7A C13G A16U C18G | 1.15
129 | G7C A14U G29C | 0.16
130 | G7C A11C G29U U43A | 0.03
131 | G7A G22A G29A G33U G35A G40A | 0.16
132 | G7A C15G G44C | 0.02
133 | G7A C15G A39U | 0.24
134 | G7C A24C G29U A41C | 0.21
135 | G7A C10A C13U G27U G33U | 0.01
136 | G7C A11C U34G | 0.01
137 | G7C A16U G19A | 0.28
138 | G7A C13A C31A | 0.04
139 | G7A C18A G35U C45A | 0.05
140 | G7C A16C G17C | 0.04
141 | G7A G33C U43A | 0.29
142 | G7A C23A U28C U32A C37G | 0.01
143 | G7A U20G A39U | 0.14
144 | G7A C8U A16C A26U | 0.11

Row | Variant | self-cleavage
145 | G7C A26G G27C U34G C45U | 0.04
146 | G7A C8G U9G C18U | 0.01
147 | G7A G19A G35A A41G | 0.15
148 | G7A G33U G40U | 0.27
149 | G7A U20G G21C U38C | 0.05
150 | G7A U9G A12U | 0.29
151 | G7A C13U U20G A24U U34C | 0.16
152 | G7C A11U C15A C18U | 0.05
153 | G7A U20A G33U | 0.06
154 | G7A C10A U20G | 0.01
155 | G7A G19A C23G | 0.04
156 | G7A U9A A16U G17C C18A U20C C37A A39G | 0.04
157 | G7A G19U G27A | 0.16
158 | G7C A11U A25U U43A | 0.01
159 | G7A G21A G40A | 2.2
160 | G7C A11C G17U C42G | 0.05
161 | G7A G19A C23U C37A | 0.07
162 | G7A G27A G40C | 0.07
163 | G7A C23U G27A U38G C46U | 0.02
164 | G7C A25G G33U G40C | 0.1
165 | G7C A25U G30C U32G | 0.71
166 | G7C C8A A14U C45G | 0.22
167 | G7A C8U A25U C42U | 0.09
